Experimental data reported in publication PMC4336329 (PLoS ONE, 2015).
The whole screen tested about 310,000 compounds, of which about 14,000 (4.5%) showed an effect of 50% or more. Effects have a minus sign here. The list shows a part of the results.

Biological target: human ether-à-go-go-related gene (hERG) potassium channel (human, UniProt Q12809)
Assay: primary screen, population patch clamp on CHO cells stably expressing hERG
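Also: peak tail current of the secondary pulse compared with the same well before compound.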

human ether-à-go-go-related gene (hERG) potassium channel, sequence (Q12809 whole entry, looked up): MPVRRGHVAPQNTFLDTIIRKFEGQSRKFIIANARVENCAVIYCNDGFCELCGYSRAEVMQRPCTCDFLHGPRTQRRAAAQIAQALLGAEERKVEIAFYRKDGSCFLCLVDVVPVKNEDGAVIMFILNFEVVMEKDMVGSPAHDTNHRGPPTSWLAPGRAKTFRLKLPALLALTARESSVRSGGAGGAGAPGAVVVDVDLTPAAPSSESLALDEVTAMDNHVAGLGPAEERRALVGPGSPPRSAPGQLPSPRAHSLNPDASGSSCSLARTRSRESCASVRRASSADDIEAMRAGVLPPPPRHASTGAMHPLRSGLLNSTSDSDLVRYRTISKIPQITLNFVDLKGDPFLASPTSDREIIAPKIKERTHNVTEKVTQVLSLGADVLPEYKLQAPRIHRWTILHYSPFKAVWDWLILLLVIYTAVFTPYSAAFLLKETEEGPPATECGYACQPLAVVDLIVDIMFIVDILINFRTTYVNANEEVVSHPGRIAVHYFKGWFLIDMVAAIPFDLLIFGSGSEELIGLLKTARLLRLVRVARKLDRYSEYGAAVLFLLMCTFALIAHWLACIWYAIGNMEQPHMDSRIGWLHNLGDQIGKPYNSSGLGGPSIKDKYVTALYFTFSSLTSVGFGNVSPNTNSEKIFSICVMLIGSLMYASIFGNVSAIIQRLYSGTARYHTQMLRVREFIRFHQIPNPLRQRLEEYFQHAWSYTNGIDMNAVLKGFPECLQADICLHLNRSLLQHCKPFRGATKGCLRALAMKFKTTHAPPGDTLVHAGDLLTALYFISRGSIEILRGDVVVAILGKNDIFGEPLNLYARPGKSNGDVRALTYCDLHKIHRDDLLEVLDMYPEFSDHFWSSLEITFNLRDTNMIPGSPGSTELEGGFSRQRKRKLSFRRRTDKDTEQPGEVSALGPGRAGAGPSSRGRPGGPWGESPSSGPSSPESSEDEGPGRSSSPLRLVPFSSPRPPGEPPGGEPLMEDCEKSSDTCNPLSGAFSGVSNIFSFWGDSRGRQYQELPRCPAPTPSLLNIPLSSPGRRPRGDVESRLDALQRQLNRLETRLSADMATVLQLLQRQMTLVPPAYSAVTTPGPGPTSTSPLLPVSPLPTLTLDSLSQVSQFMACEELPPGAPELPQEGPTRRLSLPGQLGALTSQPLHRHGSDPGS

SMILES	hERG current change (%, negative = inhibition) at 10uM [%]
CCCOc1ccc(C2C(C(=O)/C=C/c3ccco3)=C(O)C(=O)N2CCN2CCOCC2)cc1OC (stereo not drawn)	1.81
CCOc1ccc(C(=O)NCC(=O)OCC(=O)c2ccc3c(c2)-c2ccccc2C3)cc1	4.05
CCCC[N+]1(C)[C@@H]2CC(OC(=O)[C@H](CO)c3ccccc3)C[C@H]1[C@@H]1O[C@@H]12.[Br-] (stereo partly drawn)	5.61
CN(C)c1ccc(N=Cc2nc(-c3ccccc3)oc2OC(=O)c2cccc(Cl)c2)cc1	4.46
Cc1ccc(NC(=O)CN(C)S(=O)(=O)c2cccc3cccnc23)c(C)c1	4.3
CCCn1c(OC)nc2c1c(=O)n(C)c(=O)n2C	-4.62
CCOC(=O)C(NCCOC)(NC(C)=O)C(F)(F)F (stereo not drawn)	11.4
O=C(NCCN1CCOCC1)c1ccc2c(c1)ncn2C1CCCC1	-6.39
CCc1ccc(-c2ccc3nnc(SCC(N)=O)n3n2)cc1	8.33
COc1ccccc1-n1c(C)nc2cc(C(=O)NCCN3CCOCC3)ccc21	9.24
O=C(CS(=O)(=O)c1ccccc1)NC1CCCCC1	14.5
CC(=O)c1sc(NC(=O)CSCc2c(C)noc2C)nc1-c1ccccc1	-27.4
O=C(Nc1nc(-c2ccccc2)cs1)c1cccc(S(=O)(=O)N2CCN(Cc3ccccc3)CC2)c1	17.6
Cc1cc(C)cc(N(CCC#N)C(=O)CSC2=Nc3ccccc3C3CC=NN23)c1 (stereo not drawn)	16.1
CCCNC(=O)c1ccc(N2CCC3(CC2)CC(c2cccc(Br)c2)=NO3)c(NC(=O)c2ccccc2)c1	-0.8
CCOc1ccccc1CN1CCN(CCCn2cccn2)CC1CCO (stereo not drawn)	-57.4
Cn1c(CNC(=O)OC(C)(C)C)nnc1SCc1c(Cl)cccc1Cl	2.14
COc1ccc(CN2CCN(CC(=O)Nc3ccccc3C(=O)NC3CC3)CC2)cc1F	-91.3
Cc1nc2nc(-c3ccccc3)[nH]n2c(=O)c1Cc1ccccc1	-8.48
CCCC(NCC(O)COc1ccc(-c2ccccc2)cc1)c1ccccc1 (stereo not drawn)	10.3
CC(C)COC(=O)c1ccc(NC(=O)C2C3C=CC(C3)C2C(=O)O)cc1 (stereo not drawn)	-3.17
O=C(Nc1ccccc1)N1C(=O)C2(OCCO2)c2ccccc21	26.3

SMILES	hERG current change (%, negative = inhibition) at 10uM [%]
CC(C)(C)C(=O)Nc1ccc(-c2nnc3n2CCCCC3)cc1	7.31
COc1ccc(OC)c(-c2cc(C(=O)N/N=C/c3ccc(F)cc3)c3ccccc3n2)c1	1.22
O=S(=O)(c1ccc(-c2cnc(C3CC3)o2)cc1)N1CCN(c2ccccc2)CC1	13.1
CC(C)N(Cc1ccccc1)C(=S)Nc1ccc(OC(F)F)cc1	-56.7
CC1(c2ccccc2)NC(=O)N(CC(=O)N2CCN(S(=O)(=O)c3cccc([N+](=O)[O-])c3)CC2)C1=O (stereo not drawn)	5.57
CC(=O)Nc1nnc(C)s1	11.9
COc1cc([N+](=O)[O-])ccc1-c1ccc(/C=N\n2cnnc2)o1	4.76
CC(=O)Nc1ccc(S(=O)(=O)N2CCN(S(=O)(=O)N3CCOCC3)CC2)cc1	8.58
Cc1nn(CC(=O)N(C)C2(C#N)CCCCC2)c(C)c1[N+](=O)[O-]	-6.06
O=C(COC(=O)c1ccccn1)Nc1ccccc1OC(F)F	6.71
CS(=O)(=O)N(CC(=O)Nc1cccc(F)c1)c1cccc([N+](=O)[O-])c1	-33.8
O=C(c1ccccc1)c1ccc(N2CCCC2)cc1	-4.18
C=C1CCC[C@]2(C)C[C@H]3OC(=O)C(CNC(C)(CO)CO)[C@H]3CC12 (stereo partly drawn)	7.4
C#CCNc1nc(C)nc2c1nnn2Cc1ccccc1F	10.6
c1ccc(N2CCN(c3nc4cc5c(cc4s3)OCCO5)CC2)cc1	-12.7
Nn1c(SCC(=O)N2CCOCC2)nnc1-c1ccc(Cl)cc1Cl	6.65
COc1cccc(CN2CCN(C(=O)c3cc(-c4cccnc4)nc4ccc(C)cc34)CC2)c1	-12.7
O=C(CSc1ccsc1[N+](=O)[O-])N1CCCCCC1	1.2
CCC(=NCCOc1ccc(Cl)cc1)c1c(O)n(C)c(=O)n(C)c1=O	-29.8
COc1ccccc1N1CCN(C2=CC(=O)CCC2)CC1	4.72
Cn1c(NCCCN2CCOCC2)nc2c1c(=O)n(Cc1ccc(Cl)c(Cl)c1)c(=O)n2C	-46
O=C(Nc1nccs1)c1cc2c(s1)-c1ccccc1OC2	16.2

SMILES	hERG current change (%, negative = inhibition) at 10uM [%]
O=C1OCCC1Sc1nnc(-c2ccccc2Br)n1Cc1ccccc1 (stereo not drawn)	-24
Cc1ccc(CSCC(=O)NCCc2ccccc2)cc1	-3.13
CCOC(=O)Nc1ccc2c(c1)ncn2C1CCCCC1	-8.98
COc1ccc2cc(C(=O)N3CCN(c4cccc(C)c4C)CC3)[nH]c2c1	-5.32
COc1ccc(NCc2nnc(SCC(=O)Nc3cc(C)cc(C)c3)o2)cc1	-0.894
COc1ccc(/C(N)=N/OC(=O)CCCc2ccccc2)cc1	-11.3
COc1cccc(C(=O)Oc2c(Br)cc(Br)cc2/C=N/NC(=O)c2cc(C)[nH]n2)c1	7.48
Cl.NCCC(=O)N1c2ccccc2Sc2ccccc21	-0.703
COc1cccc(NC(=O)c2ccccc2Br)c1	0.484
Cc1nnc(SC(C)C(=O)NC2CCCCC2C)n1N (stereo not drawn)	6.45
CCC(Sc1nncn1C)C(=O)Nc1nnc(-c2ccc(Cl)cc2)s1 (stereo not drawn)	1.7
CCOC(=O)N1CCN(C(=S)Nc2ccc(C)cc2)CC1	6.67
COc1ccc(F)cc1Cn1nc(C(=O)O)c2ccccc2c1=O	15.1
Cc1ccc(-n2ncc3c(N4CCCC(C)C4)ncnc32)c(C)c1 (stereo not drawn)	-8.2
CCOC(=O)COc1ccc(C2CC(C)=NN2c2ccccc2)cc1 (stereo not drawn)	-0.31
CCCOC(=O)c1ccc(NC(=O)C(=O)NCC2CCCO2)cc1 (stereo not drawn)	4.7
CCOC(=O)c1sc(NC(=O)c2ccc(S(=O)(=O)N3CCCCCC3)cc2)nc1-c1ccccc1	24.5
CCOc1ccc(NC(=S)NCc2ccc3c(c2)OCO3)cc1	2.65
COc1ccc(N2C(=O)CC(Sc3nc4ccccc4s3)C2=O)cc1 (stereo not drawn)	6.98
Cl.N=c1n(CCCOc2ccc(Br)cc2)c2ccccc2n1CC(N)=O	-44.7
COc1cc(/C=N/O)ccc1Oc1cnccn1	13.5
CCc1nnc(NC(=O)CCC(=O)N2CCN(Cc3cc(Cl)ccc3OC)CC2)s1	-3.48

SMILES	hERG current change (%, negative = inhibition) at 10uM [%]
O=S1(=O)CCN2C(=N1)SC1=C2CCN(Cc2ccccc2)C1	17.2
CCCc1nn2c(=O)cc(CSCC(=O)Nc3cccc(C)c3)nc2s1	0.26
CC1CC(C)CN(C(=O)c2cn(C)c3ccc(S(=O)(=O)N(C)C)cc3c2=O)C1 (stereo not drawn)	-3.09
Cc1ccc(C)c(S(=O)(=O)N2CCN(c3nc(CN4CCOCC4)nc4sc(C)c(C)c34)CC2)c1	-57.1
COc1ccccc1-c1c(C(F)(F)F)oc2cc(OC(=O)c3ccc([N+](=O)[O-])cc3)ccc2c1=O	11.9
COc1ccc(C2=NOC(C(=O)Nc3cc(Br)ccc3O)C2)cc1OC (stereo not drawn)	16.3
O=C(NCCc1ccccc1)C(=O)c1c[nH]c2ccccc12	5.34
COc1cccc2cc(C(=O)C3=C(O)C(=O)N(CCN(C)C)C3c3ccc(Cl)cc3)oc12 (stereo not drawn)	4.47
Cn1c(C=O)c(-c2ccc3c(c2)OCCO3)c2ccccc21	1.03
CCC(=Nc1ccc(N)cc1)C1=C(O)C(C(=O)OC)C(C)(C)CC1=O (stereo not drawn)	27.9
CC(NC(=O)C1CCN(S(=O)(=O)c2cnc[nH]2)CC1)c1ccccc1 (stereo not drawn)	3.81
Cc1cc(NC(=O)CSc2nnc(NC(=O)C3CC(=O)N(c4ccccc4)C3)s2)no1 (stereo not drawn)	9.58
CCC(=O)N1CCc2cc(S(=O)(=O)N3CCCC3)ccc21	15.7
COc1ccc(NC(=S)NCC2CCCO2)c(C)c1 (stereo not drawn)	2.1
Cc1ccc(C)c(NC(=O)Cn2nnc(C(=O)Nc3c(C)cccc3C)c2N)c1	-9.97
COc1ccc(-n2cnc3sc4c(c3c2=O)CCCC4)cc1	11.2
CCOc1ccc(S(=O)(=O)N(C(=O)c2ccco2)c2cc3sc(=O)oc3c3ccccc23)cc1	19.6
O=C(Nc1cc(Br)ccc1O)c1cc(-c2cccs2)on1	-29.1
Clc1cccc(Cl)c1CSc1nnc(/C=C/c2ccccc2)o1	8.1
Cc1ccc(NC(=O)C2CCN(C(=O)N3CCOc4ccccc43)CC2)cc1	-4.24
Cc1ccc(CSc2nnc(-c3ccc4c(c3)OCO4)o2)cc1	8.8
